In PubChem BioAssay (NCI):
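Compound exposure: 48 hours, 5 concentrations, 96-well plates. GI50: concentration for 50% inhibition of growth. TGI marks complete inhibition of growth.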

What follows are molecules tested on NCI-H322M lung (assay: NCI anticancer screen, dose series, 48 h).
In the case of `COc1cccc(N2CCN(C3=C(Cl)C(=O)c4ncccc4C3=O)CC2)c1`, the GI50 is reported as 15.3 µM and the TGI is reported as 29.1 µM. `O=S(=O)(Nc1ccc(-c2nc(-c3cccc(O)c3)c(-c3ccnc(Br)c3)[nH]2)cc1)c1ccccc1` showed a GI50 of 2.9 µM and a TGI of 10.6 µM. For `CCN(CC)CCN1C(=O)c2c(c3c4cc(Br)ccc4[nH]c3c3ccc4ccccc4c23)C1=O`, the GI50 was 1.54 µM and the TGI was 2.95 µM.
